# According to PubChem BioAssay AID260 (DTP/NCI, 2004):
# Toxic doses and inconclusive results are not listed. A number of entries come with more than one value. The other results are left out here. The source may hold further records. Values that stand side by side are repeated measurements in other runs, samples, wells, individuals or studies.
# Test system: CD2F1 mice, intracerebral L1210 leukemia, survival T/C
# Test: NCI In Vivo Anticancer Drug Screen. Data for tumor model L1210 Leukemia (intracerebral) in CD2F1 (CDF1) mice
# Settings: schedule: Q01DX009 (ip), vehicle: saline, higher = longer survival
# Protocol: The antitumor activity of compounds was measured in mice bearing transplantable tumors. Survival or tumor size were measured and the results are expressed as the measurement made in the treated group (T) divided by the measurement made in the vehicle treated control group (C). The tumor model used in this assay is L1210 Leukemia (intracerebral) in CD2F1 (CDF1) mice
Structure (SMILES),"T/C (endpoint: median survival time, dose: 128.0 mg/kg/injection)","T/C (endpoint: mean survival time, dose: 0.75 mg/kg/injection)"
CC/C(=C(/CC)c1ccc(O)cc1)c1ccc(O)cc1,94 % of control and 153 % of control,–
O=C1C(NCCO)=C(N2CC2)C(=O)C(NCCO)=C1N1CC1,–,122 % of control and 157 % of control
